About 4,200 (1.3%) of roughly 330,000 compounds were called active. The shares of active, inactive and inconclusive entries below differ from those in the screen. Calls follow the shape of the dose curve; as a rule, active = well fitted activation curve with a large enough effect; inconclusive = small, poorly fitted or top-dose-only effect; inactive = no such curve, though single readings can be large or run the other way. Potencies of inconclusive entries are doubtful fits and often do not repeat.
Assay: qHTS screen for small molecules that induce genotoxicity in human embryonic kidney (HEK293T) cells expressing luciferase-tagged ELG1; also: nearly all actives have a fitted effect of over 60% in size; as to activity change, positive = activation: % of control where 0% means no effect
Conditions: HEK293T ELG1-luciferase reporter, luminescence, 16 h; series mostly up to 46 µM; activity change, positive = activation: at the top concentration
How it was run: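 Screening used a luciferase reporter fused to human ELG1 in HEK293T cells. Luminescence was read on a CCD plate imager after 16 hr exposure and 30 min ONE-Glo incubation.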
With COc1ccc(CN2C(=O)c3ccccc3C(/C=N/OCc3ccc(Cl)cc3)C2=O)cc1 (stereo not given) the “activity change, positive = activation” value was inactive: -7.64%. In the case of COc1cc(C(C(=O)NC2CCCC2)N(C(=O)Cc2cccs2)C2CC2)cc(OC)c1OC (stereo not given), the “activity change, positive = activation” value is reported as inactive: -1.16%. In the case of Cc1ccnc(NC(=O)c2cccc(S(=O)(=O)N3CCOCC3)c2)c1, the Potency is reported as inconclusive: 2.59 µM [activator, partial curve]. With COc1ccc(NC(=O)C(=S)NC2CCCCC2)cc1 the Potency was active: 8.2 µM. In the case of Fc1cccc2sc(Nc3nc4ccccc4s3)nc12, the Potency is reported as inconclusive: 9.2 µM [activator, partial curve]. For COc1ccc(CCNC(=O)CNC(=O)Cn2ccc3ccccc3c2=O)cc1OC, the “activity change, positive = activation” value was inactive: 2.02%. For Cn1c(-c2ccccc2)cnc1SCC(=O)N1CCCCC1, the Potency was inconclusive: 1.46 µM [activator, partial curve]. For O=C(Nc1nc(-c2ccc(Cl)s2)cs1)c1ccco1, the Potency was inconclusive: 11.6 µM [activator, partial curve, poor fit]. In the case of COC(=O)c1ccc(COc2ccccc2/C=N/NC(=O)c2cccnc2)cc1, the “activity change, positive = activation” value is reported as inactive: 6.18%. With Cc1nc2ccc(Cl)cc2nc(C)/c1=N\O the Potency was active: 18.4 µM. In the case of C/C(=N/Nc1nc(C)c(C)s1)c1cccc([N+](=O)[O-])c1, the Potency is reported as inconclusive: 18.3 µM [activator, partial curve, poor fit]. In the case of CCCCCCNC(=O)Nc1ccccc1, the Potency is reported as inconclusive: 18.4 µM [activator, partial curve, poor fit]. In the case of O=C(N/N=C/C(Br)=C/c1ccccc1)c1cccs1, the Potency is reported as inconclusive: 2.59 µM [activator, full curve]. In the case of COc1ccc(NC(C)=O)cc1S(=O)(=O)Nc1ccccc1C(=O)NCCc1ccccc1, the Potency is reported as inconclusive: 8.2 µM [activator, partial curve]. For O=C(CCS(=O)(=O)Cc1cccc(Cl)c1)NCCc1ccccc1, the “activity change, positive = activation” value was inactive: 0.0077%. With CNC(=O)c1csc(-c2ccc(C)cc2)n1 the Potency was inconclusive: 23.1 µM [activator, partial curve, poor fit]. In the case of COC(=O)CC1COc2ccccc2N1S(=O)(=O)c1ccc(Br)cc1 (stereo not given), the “activity change, positive = activation” value is reported as inactive: -3.52%. For O=C(Nc1ccc(N2CCOCC2)cc1)c1cccc(S(=O)(=O)N2CCOCC2)c1, the “activity change, positive = activation” value was inactive: -1.33%. With O=[N+]([O-])c1cccc(/C=N/Nc2ccccn2)c1 the Potency was inconclusive: 14.6 µM [activator, single point]. In the case of O=[N+]([O-])c1ccc(C[n+]2cccc3ccc4cccnc4c32)cc1, the “activity change, positive = activation” value is reported as inactive: 1.49%. In the case of O=C(NCc1ccco1)c1cc(-c2ccc(F)cc2)on1, the Potency is reported as inconclusive: 5.8 µM [activator, partial curve]. With CC(=O)Nc1nc2ccc(NC(=O)c3ccco3)cc2s1 the Potency was inconclusive: 4.11 µM [activator, single point]. With CCCCOc1ccccc1NC(=O)Cn1c(-c2nonc2N)nc2ccccc21 the Potency was inconclusive: 18.4 µM [activator, partial curve, poor fit]. With COc1cccc(NC(=O)Nc2nc(SC)ns2)c1 the Potency was inconclusive: 2.31 µM [activator, partial curve, poor fit]. With COc1ccc(N2CCN(C(CNC(=O)COc3ccccc3)c3ccco3)CC2)cc1 (stereo not given) the “activity change, positive = activation” value was inactive: -10.9%. For Cc1cc(C)n(-c2nc3ccccc3c(=O)n2OCC(=O)OCc2ccccc2)n1, the Potency was inconclusive: 20.6 µM [activator, single point]. In the case of CCc1ccc(NC(=O)N2CCCCCC2)cc1, the Potency is reported as active: 20.6 µM. For Cc1cccnc1NC(=O)Nc1ccccc1, the Potency was inconclusive: 23.1 µM [activator, partial curve, poor fit]. For Oc1cccc(NC(=S)N=Nc2c(O)[nH]c3ccccc23)c1, the Potency was inconclusive: 32.6 µM [activator, partial curve, poor fit]. With CCOC(=O)c1[nH]c(C)c(C(=O)C(C)C)c1C the Potency was inconclusive: 11.2 µM [activator, partial curve]. With O=C(CSc1nnc(-c2ccccn2)o1)Nc1ccccc1Cl the Potency was inconclusive: 3.16 µM [activator, single point]. In the case of C=CCNC(=O)c1cc(-c2ccccc2O)on1, the Potency is reported as active: 18.4 µM. With CCOC(=O)c1nn(-c2ccc(Cl)cc2)cc1O the Potency was inconclusive: 13 µM [activator, partial curve]. With COc1ccc2[nH]c(C)c(CCNC(=S)Nc3ccccc3OC)c2c1 the “activity change, positive = activation” value was inactive: -13.8%. With CN1C(=O)C(C)(C)c2cc(S(=O)(=O)N3CCN(c4ccccc4)CC3)ccc21 the “activity change, positive = activation” value was inactive: -1.18%. For Cc1cc(O)ccc1Nc1nc(-c2cccs2)cs1, the Potency was active: 3.26 µM. In the case of O=C(/C=C/c1ccc(Cl)cc1Cl)N1CCN(c2ccccc2[N+](=O)[O-])CC1, the “activity change, positive = activation” value is reported as inactive: -1.9%. For COc1ccc(-n2nc(C(=O)c3cccs3)cc(-c3nc4ccccc4[nH]3)c2=N)cc1, the Potency was active: 23.1 µM. In the case of COC(=O)c1cn(CCOc2ccccc2F)c2ccccc12, the Potency is reported as inconclusive: 14.6 µM [activator, partial curve]. With COc1cccc(CNC(=O)c2cc3ccccn3n2)c1 the Potency was inconclusive: 25.9 µM [activator, partial curve, poor fit]. For O=[N+]([O-])c1ccc(Cl)c(NC(=S)N2CCCC2)c1, the Potency was inconclusive: 16.4 µM [activator, partial curve, poor fit]. For COc1ccc(CC(=O)Nc2nnc(C(C)(C)C)s2)cc1OC, the “activity change, positive = activation” value was inactive: -3.64%. In the case of COc1ccccc1-c1cnn2c(NC3CCCC3)cc(C)nc12, the Potency is reported as inconclusive: 10.3 µM [activator, partial curve, poor fit]. In the case of O=C(CCNC(=O)c1ccccc1)Nc1nc2ccccc2s1, the Potency is reported as inconclusive: 20.6 µM [activator, partial curve, poor fit]. With O=c1oc(CCCO)cc2ccc(/C=C/c3cccc([N+](=O)[O-])c3)cc12 the Potency was active: 4.11 µM. With O=C(COc1ccc(Cl)cc1Cl)c1ccc[nH]1 the Potency was inconclusive: 23.1 µM [activator, partial curve, poor fit]. For NS(=O)(=O)c1cccc(NC(=O)c2cccc(-c3ccc(O)cc3)c2)c1, the “activity change, positive = activation” value was inactive: 1.25%. In the case of N/C(=N\OC(=O)CSc1ccccc1)c1ccncc1, the Potency is reported as inconclusive: 14.6 µM [activator, single point]. For Cc1ccnc(NC(=O)c2oc3ccccc3c2C)c1, the Potency was inconclusive: 2.91 µM [activator, partial curve]. For COc1ccccc1NC(=O)C1CCN(c2ncnc3c2nc2n3CCCCC2)CC1, the activity change, positive = activation was inactive: -0.0573% [at 9.26 µM]. For CCN(CC)S(=O)(=O)c1ccc(C(=O)N2CCN(c3ncccn3)CC2)cc1, the “activity change, positive = activation” value was inactive: 1.6%. With O=C(N/N=C/c1ccc([N+](=O)[O-])cc1)c1[nH]ncc1Br the Potency was inconclusive: 5.17 µM [activator, partial curve]. For CC(=O)NC(CSC(CC(=O)c1ccco1)c1ccc(C)cc1)C(=O)O (stereo not given), the Potency was inconclusive: 29.1 µM [activator, single point]. With CN(C(=O)CCc1nc2ccccc2s1)c1ccccc1 the Potency was inconclusive: 16.4 µM [activator, partial curve, poor fit]. With CCSc1nnc2nc3[nH]c4c(C)cccc4c3nn12 the Potency was inconclusive: 18.3 µM [activator, single point]. In the case of CCc1cc2c(=O)c(-c3ccc4c(c3)OCCO4)coc2c(CN2CCCCC2C)c1O (stereo not given), the “activity change, positive = activation” value is reported as inactive: 12.1%. For O=C(COc1ccccc1)NC(=S)Nc1ccc2c3c(cccc13)CC2, the “activity change, positive = activation” value was inactive: 7.25%. With CCc1cccc(NC(=O)c2ccc(Br)o2)c1 the “activity change, positive = activation” value was inactive: 11.5%. In the case of COc1ccccc1NC(=O)c1ccc(NC(=O)c2ccco2)cc1, the “activity change, positive = activation” value is reported as inactive: 1.08%. For Brc1ccc(C2=Nn3c(nnc3-c3n[nH]c4c3CCC4)SC2)cc1, the Potency was inconclusive: 16.4 µM [activator, partial curve, poor fit]. In the case of COc1cccc(-c2nc(-c3ccccn3)no2)c1OC, the Potency is reported as active: 9.2 µM. With CC(=O)NNc1ncnc2c1cnn2-c1ccc(C)cc1 the Potency was inconclusive: 6.51 µM [activator, partial curve, poor fit]. With CCOC(=O)c1sc2nc3c(cc2c1N)COC(C)(CC)C3 (stereo not given) the Potency was inconclusive: 1.46 µM [activator, full curve]. For O=C(Nc1cc(Br)ccc1O)c1cc(-c2ccc3c(c2)OCO3)on1, the Potency was inconclusive: 2.06 µM [activator, partial curve, poor fit]. With CCC(C)c1ccc(OCC(=O)Nc2ccc(Cl)cn2)cc1 (stereo not given) the Potency was inconclusive: 16.4 µM [activator, partial curve]. For CCC(C)c1ccccc1NC(=O)C(C)N(C)Cc1cccc(OC)c1 (stereo not given), the “activity change, positive = activation” value was inactive: -11%. In the case of COc1ccc(CNC(=O)COC(=O)c2cccn2C)cc1, the Potency is reported as inconclusive: 23.1 µM [activator, partial curve, poor fit]. In the case of Cn1c2ccc(F)cc2c2nnc(SCCN3CCCCC3)nc21, the Potency is reported as inconclusive: 29.1 µM [activator, partial curve, poor fit]. In the case of COc1cccc(-c2nc3sc4c(c3c(=O)[nH]2)CCCCC4)c1, the Potency is reported as inconclusive: 5.8 µM [activator, partial curve, poor fit]. With Cc1cc(C(=O)N/N=C/c2ccc(N3CCOCC3)cc2)c(C)o1 the Potency was inconclusive: 18.3 µM [activator, partial curve, poor fit]. With N/C(=N\OC(=O)Nc1ccccc1)c1ncc(C(F)(F)F)cc1Cl the Potency was active: 23.1 µM. In the case of Cc1ccnn1-c1ccc(C(=O)NCC(c2ccco2)N2CCCC2)cc1 (stereo not given), the “activity change, positive = activation” value is reported as inactive: 0.183%. With O=C(N/C=C/c1ccco1)Nc1cccc(Cl)c1 the “activity change, positive = activation” value was inactive: -0.756%. For CCc1nc2oc3cc(OC)ccc3c(=O)c2c(=O)n1Cc1ccccc1, the “activity change, positive = activation” value was inactive: 5.27%. For COc1ccc(/C=N\Nc2ncc(F)c(N3CCOCC3)n2)cc1OC, the “activity change, positive = activation” value was inactive: -7.94%.

Reference: PubChem BioAssay AID504466 (National Center for Advancing Translational Sciences (NCATS), 2011)
Potency is read from the fitted curve at half-maximal effect; tags tell the direction and shape of the fitted curve.
